About 140 (0.048%) of roughly 290,000 compounds were called active. Inconclusive means that the source gave no clear call. Such entries were picked first, then a sample of the others.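 Rule for the calls: active = activation above 40% with more than 50 cells counted in the well; inconclusive = wells holding fewer than 50 cells, flagged as toxic or sparse; inactive = the rest.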
What follows are molecules tested against G-protein coupled receptor 55 (Homo sapiens) (UniProt Q9Y2T6) (assay: selective activators of receptor GPR55 – imaging, U2OS cells, beta-arrestin-GFP redistribution, primary screen (AID 1961;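 note: U2OS osteosarcoma cells stably expressing GPR55 and beta-arrestin-GFP; plate controls were DMSO negative control for no effect and LPI positive control for full effect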)). Conditions: at 10 µM, active compounds read high.
Sequence of UniProt Q9Y2T6 (Q9Y2T6 whole entry, looked up): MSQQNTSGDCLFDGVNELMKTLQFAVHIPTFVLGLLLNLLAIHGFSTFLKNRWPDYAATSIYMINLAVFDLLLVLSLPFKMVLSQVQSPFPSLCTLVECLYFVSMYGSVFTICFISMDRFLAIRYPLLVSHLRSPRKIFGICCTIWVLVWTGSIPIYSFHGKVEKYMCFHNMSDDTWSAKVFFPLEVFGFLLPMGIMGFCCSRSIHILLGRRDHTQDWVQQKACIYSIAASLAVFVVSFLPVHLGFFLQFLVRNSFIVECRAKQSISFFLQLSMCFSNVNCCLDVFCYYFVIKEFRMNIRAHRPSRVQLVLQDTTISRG
`O=C(NOC(=O)c1cc(Br)ccc1Cl)c1cccs1` was tested, and the activation was inactive: -0.1%.
In the case of `CSc1ccccc1NC(=O)CN(C)CC(=O)Nc1ccc(Cl)cc1F`, the activation is reported as inconclusive: -0.1%.
For `CC(C)NC(=O)COC(=O)c1cc(Br)ccc1Cl`, the activation was inconclusive: -0.2%.
`NC(=O)C1CCN(CC(=O)Nc2ccccc2Sc2ccccc2)CC1` was tested, and the activation was inconclusive: -0.1%.
For `Cc1ccc(C)c(C(=O)NCc2ccncc2)c1`, the activation was inconclusive: -0.2%.
In the case of `COc1cc(/C=N/Nc2nc3ccccc3s2)ccc1OC(=O)c1ccccc1F`, the activation is reported as inconclusive: -0.2%.
In the case of `COc1ccc(Cn2c(=S)[nH]c3cc(C(=O)N4CCCCC4)ccc3c2=O)cc1`, the activation is reported as inconclusive: 0%.
For `CCn1c(CNC(=O)c2ccco2)nnc1SCC(=O)Nc1cc(F)ccc1C`, the activation was inconclusive: 3%.
In the case of `COc1ccc2cc(CCNC(=O)C3CCCC3)c(=O)[nH]c2c1`, the activation is reported as inactive: -0.1%.
For `Cc1cccc(C)c1NC(=S)Nc1ccccc1C(=O)NCc1ccco1`, the activation was inconclusive: -0.2%.
For `CCOc1ccc(N(C(=O)CNC(=O)c2ccco2)C(C(=O)NC2CCCC2)c2cccnc2)cc1` (stereo not drawn), the activation was inconclusive: 0%.
For `COC(=O)c1ccc(OCc2cc(=O)n3ccsc3n2)cc1`, the activation was inconclusive: -0.2%.
`CCn1c(SCC(=O)Nc2nncs2)nnc1-c1ccco1` was tested, and the activation was inconclusive: 0%.
`Cc1nn2c(N3CCCC3)c3c(nc2c1-c1ccccc1)CCC3` was tested, and the activation was inactive: 0%.
`Cc1nn(Cc2ccccc2)c(Cl)c1C(=O)NCCc1ccccc1` was tested, and the activation was inconclusive: -0.1%.
In the case of `CCOc1ccc2nc(Cl)sc2c1`, the activation is reported as inactive: -0.1%.
For `O=c1c2c3nc4ccccc4nc3n(CC3CCCO3)c2ncn1CCc1ccccc1` (stereo not drawn), the activation was inconclusive: 0%.
For `C/C(=N\NC(=O)Cc1cc(=O)[nH][nH]1)c1cccc([N+](=O)[O-])c1`, the activation was inconclusive: -0.1%.
`O=C(NCCc1ccccn1)c1nc(Cn2cc(Br)cn2)no1` was tested, and the activation was inconclusive: 0%.
With `CC(C)CC(=O)Nc1nnc(S(=O)(=O)N(C)Cc2ccco2)s1` the activation was inactive: -0.2%.
With `C=C(C(=O)c1ccccc1)C(c1ccccc1)C(C)C(=O)c1ccccc1` (stereo not drawn) the activation was inconclusive: -0.1%.
`CCOC(=O)CSc1nc2c([nH]c3ccccc32)c(=O)n1C` was tested, and the activation was inactive: -0.1%.
In the case of `c1ccc(-c2cn3nc(-c4ccccc4)c(-c4ccccc4)nc3n2)cc1`, the activation is reported as inactive: 0.6%.
For `CC1(C)CC(NC(=O)c2c(N)no[n+]2[O-])CC(C)(C)N1`, the activation was inactive: -0.3%.
For `Cc1sc2ncn(CC(=O)N3CCC(C(N)=O)CC3)c(=O)c2c1S(=O)(=O)N1CC(C)CC(C)C1` (stereo not drawn), the activation was inconclusive: -0.2%.
In the case of `O=C(CSc1nnnn1-c1ccccc1)NC1CCCc2ccccc21` (stereo not drawn), the activation is reported as inconclusive: -0.2%.
With `CCn1c(CNC(=O)c2ccco2)nnc1SCC(=O)c1ccc(F)cc1` the activation was inconclusive: 0%.
For `Cc1ccc(C)c(C(=O)CN2Cc3ccccc3C2=O)c1`, the activation was inconclusive: -0.3%.
`COc1ccc(C2=NC(=O)/C(=C\c3cc(OC)c(OC)c(OC)c3)O2)cc1` was tested, and the activation was inconclusive: -0.2%.
`CCCc1cc(=O)n2[nH]c(C)c(-c3ccc(OC)cc3)c2n1` was tested, and the activation was inactive: -0.1%.
`COc1ccc(/C=C2\SC(=S)N(CCCC(=O)N3CCN(C)CC3)C2=O)cc1` was tested, and the activation was inconclusive: 0%.
With `CCOC(=O)/C(=C\c1c[nH]c2ccccc12)NC(C)=O` the activation was inconclusive: -0.1%.
In the case of `CCOc1ccc(NC(=S)N2CCC(C(N)=O)CC2)cc1`, the activation is reported as inconclusive: -0.2%.
`COc1cccc(C(=O)Nc2cnn(C(C)C)c2)c1` was tested, and the activation was inactive: -0.2%.
`O=C(N/N=C/c1ccccc1F)c1cccc(NC(=O)c2ccccc2Cl)c1` was tested, and the activation was inactive: -0.2%.
In the case of `COc1ccc(NC(=O)N2c3ccccc3CC2C)cc1OC` (stereo not drawn), the activation is reported as inconclusive: -0.2%.
`Cc1cc(C)nc(NS(=O)(=O)c2ccc(NC(=O)C3(c4ccccc4)CCCC3)cc2)n1` was tested, and the activation was inconclusive: -0.3%.
With `O=C(COC(=O)c1ccc([N+](=O)[O-])s1)Nc1ncc(C(F)(F)F)cc1Cl` the activation was inconclusive: -0.1%.
In the case of `Cc1cccc2cc3c(N)c(C(=O)N4CCc5ccccc54)sc3nc12`, the activation is reported as active: 44.1%.
For `O=C(Nc1nc2c(s1)CCCC2)c1nn(Cc2ccccc2)c(=O)c2ccccc12`, the activation was inconclusive: -0.2%.
`Cc1ccc2oc(=O)cc(CN3CCN(Cc4ccccc4)CC3)c2c1` was tested, and the activation was inactive: 0%.
`COC(=O)c1ccc(OC)c(NS(=O)(=O)c2ccc(-n3cnnn3)cc2)c1` was tested, and the activation was inconclusive: 0%.
With `S=C(Nc1ccccc1Cl)N(CCN1CCCCC1)Cc1ccco1` the activation was inconclusive: -0.2%.
`Cc1cccc2nc(COc3ccc(Cl)c4cccnc34)cn12` was tested, and the activation was active: 80.9%.
For `O=C(NC1CCCC1)C1CCN(C(=O)c2cc(Cl)ccc2Cl)CC1`, the activation was inconclusive: 0%.
In the case of `CCCN1CCC(=O)N([C@H](CSc2ccc(C)cc2)CC(C)C)CC1`, the activation is reported as inactive: 5.1%.
`CC(=O)Nc1cccc(/C(C)=N/NC(=O)c2cccs2)c1` was tested, and the activation was inactive: -0.4%.
For `O=C(CSc1nnc(-c2ccc(F)cc2)o1)NC1CCCC1`, the activation was inactive: -0.1%.
With `COc1ccc(CC(=O)Nc2ccc(S(=O)(=O)Nc3onc(C)c3C)cc2)cc1OC` the activation was inconclusive: 0%.
For `Cc1cccc(NS(=O)(=O)c2cnc(Cl)c(Br)c2)n1`, the activation was inconclusive: -0.1%.
`O=S(=O)(c1cccc(-c2nn3c(-c4ccncc4)nnc3s2)c1)N1CCOCC1` was tested, and the activation was inactive: -0.2%.
For `CCn1c(CNC(=O)c2ccco2)nnc1SCC(=O)Nc1ccccc1Cl`, the activation was inconclusive: 0%.
In the case of `NCCNC[C@@H]1COC2(CCCCCCCCCCC2)O1`, the activation is reported as inconclusive: -0.1%.
In the case of `Cc1ccc2c(C)c(C(=O)N3CCN(Cc4ccc5c(c4)OCO5)CC3)oc2c1C`, the activation is reported as inactive: -0.1%.
For `CC(C)N1CCC(NC(=O)Nc2ccc3c(c2)OCO3)CC1`, the activation was inactive: 0.1%.
For `O=C(NCc1ccccc1F)C1CCCN(C(=O)NC2CCCCC2)C1` (stereo not drawn), the activation was inactive: -0.1%.
In the case of `Cc1csc(SCC(=O)NCCc2ccc(Cl)cc2Cl)n1`, the activation is reported as inconclusive: -0.2%.
`CCN1CCN(C(=O)C2CCN(S(=O)(=O)c3cc(Cl)ccc3Cl)CC2)CC1` was tested, and the activation was inconclusive: 0%.
In the case of `O=c1oc2ccccc2c(NCc2ccc(Cl)cc2)c1[N+](=O)[O-]`, the activation is reported as inactive: -0.3%.
For `S=c1[nH]nc(-c2ccncc2)n1/N=C/c1cccc2ccccc12`, the activation was inconclusive: -0.1%.
With `CCC12C(=O)C(CC)(C(c3ccccc3)=C1c1ccccc1)[C@@H]1C(=O)N(c3ccc(C)cc3)C(=O)C12` (stereo partly drawn) the activation was inconclusive: -0.1%.
In the case of `COc1ccccc1N(C(=O)CNC(=O)c1ccco1)C(C(=O)NC1CCCCC1)c1ccncc1` (stereo not drawn), the activation is reported as inconclusive: 0%.
`CCN(CC)C(=O)COC(=O)c1cc(-c2ccc(OC)cc2)nc2ccccc12` was tested, and the activation was inconclusive: 0%.
With `Cc1cc(C)n(-c2ccc(C(=O)OCC(=O)Nc3ccc(Cl)cc3[N+](=O)[O-])cc2)n1` the activation was inconclusive: -0.1%.
In the case of `CCOC(=O)CS(=O)(=O)c1nc(-c2ccccc2)cc(C(F)(F)F)n1`, the activation is reported as active: 49.8%.
For `O=C(COC(=O)c1ccccc1Nc1ccccc1)NCc1ccccc1Cl`, the activation was inconclusive: -0.3%.
With `CC(C)(C)C1=CC(=Nc2ccccc2N)C=C(C(C)(C)C)C1=O` the activation was inactive: -0.1%.
With `Cc1ccc(C(=O)N2CCN(c3ccccn3)CC2)cc1C` the activation was inactive: -0.1%.
With `N=c1c(C(=O)NC2CCCCC2)cc2c(=O)n3ccccc3nc2n1Cc1cccnc1` the activation was inconclusive: 3.4%.
With `Cc1ccccc1OCc1n(CC(=O)OC2CC(C)CCC2C(C)C)c2ccccc2[n+]1C` (stereo not drawn) the activation was active: 68%.
In the case of `NC(=O)CC(NC(=O)Cc1ccc(Br)cc1)c1ccc(N2CCC(N3CCCCC3)CC2)c([N+](=O)[O-])c1` (stereo not drawn), the activation is reported as inconclusive: -0.2%.
In the case of `COc1ccc(OC)c(NC(=O)Nc2ccc3c(c2)CCC3)c1`, the activation is reported as inconclusive: 0%.
With `O=C(NC1CCCCC1)c1cccc(S(=O)(=O)N2CCCCC2)c1` the activation was inconclusive: 0%.
With `O=C1C2C3c4ccccc4C(c4ccccc43)[C@@H]2C(=O)N1c1ccccn1` (stereo partly drawn) the activation was inconclusive: -0.2%.
`O=C(COC(=O)c1c2c(nc3ccccc13)/C(=C/c1cccc([N+](=O)[O-])c1)CCC2)NC1CCS(=O)(=O)C1` (stereo not drawn) was tested, and the activation was inconclusive: -0.2%.
In the case of `COc1ccc(/C=N/NC(=O)CNC(=O)C2COc3ccccc3O2)cc1OC` (stereo not drawn), the activation is reported as inconclusive: -0.2%.
For `CC1CCN(C(=O)CCN2C(=O)/C(=C/c3cccs3)SC2=S)CC1`, the activation was inconclusive: 3.2%.
For `CCCCC(=O)Nc1ccc(NC(=O)c2ccc(C)c([N+](=O)[O-])c2)cc1OC`, the activation was inconclusive: -0.4%.
For `Cc1ccc(C(=O)Oc2ccc([N+](=O)[O-])cc2)cc1S(=O)(=O)N1CCCCCC1`, the activation was inconclusive: -0.2%.
In the case of `O=C(C1=C[C@H](c2ccc(C(F)(F)F)cc2)C[C@H](OCc2ccc(CO)cc2)O1)N1CCOCC1`, the activation is reported as inactive: 0.1%.
For `Cc1nnc(SCC(=O)Nc2ncc3c(n2)CC(C)(C)CC3=O)s1`, the activation was inconclusive: 5.5%.
For `COC(=O)c1ccc(C(=O)OC)c(NC(=O)COc2ccccc2OC)c1`, the activation was inconclusive: -0.2%.
In the case of `O=C(C1CCCN(S(=O)(=O)c2cccc3nsnc23)C1)N1CCCCCC1` (stereo not drawn), the activation is reported as inactive: 0.1%.
`Cc1cccc(N(C(=O)CNC(=O)c2ccco2)C(C(=O)NC2CCCC2)c2ccncc2)c1C` (stereo not drawn) was tested, and the activation was inconclusive: 0%.
In the case of `CCOC(=O)C(CC)(CCC(=O)OC)c1csc(Nc2ccccc2O)n1` (stereo not drawn), the activation is reported as inactive: -0.1%.
In the case of `CC(=O)NC1(C(F)(F)F)C(=O)N(Cc2ccccc2)C2=C1C(=O)CC(C)(C)C2` (stereo not drawn), the activation is reported as inactive: 0.2%.
`COC(=O)c1c(NC(=O)COC(=O)Cn2cnc3ccccc32)sc2c1CCCC2` was tested, and the activation was inconclusive: -0.2%.
For `COc1ccccc1CCC(=O)OCC(=O)Nc1ccc(S(N)(=O)=O)cc1`, the activation was inconclusive: -0.5%.
